Experimental data from PMC4336329 (PLoS ONE, 2015).
In all, about 310,000 compounds went through this assay and about 2,200 (0.71%) showed an effect of 50% or more. Effects have a minus sign here. Some of the results follow.

Target: human ether-à-go-go-related gene (hERG) potassium channel (human, UniProt Q12809)
Assay: primary screen, population patch clamp on CHO cells stably expressing hERG

human ether-à-go-go-related gene (hERG) potassium channel, sequence (Q12809 whole entry, looked up): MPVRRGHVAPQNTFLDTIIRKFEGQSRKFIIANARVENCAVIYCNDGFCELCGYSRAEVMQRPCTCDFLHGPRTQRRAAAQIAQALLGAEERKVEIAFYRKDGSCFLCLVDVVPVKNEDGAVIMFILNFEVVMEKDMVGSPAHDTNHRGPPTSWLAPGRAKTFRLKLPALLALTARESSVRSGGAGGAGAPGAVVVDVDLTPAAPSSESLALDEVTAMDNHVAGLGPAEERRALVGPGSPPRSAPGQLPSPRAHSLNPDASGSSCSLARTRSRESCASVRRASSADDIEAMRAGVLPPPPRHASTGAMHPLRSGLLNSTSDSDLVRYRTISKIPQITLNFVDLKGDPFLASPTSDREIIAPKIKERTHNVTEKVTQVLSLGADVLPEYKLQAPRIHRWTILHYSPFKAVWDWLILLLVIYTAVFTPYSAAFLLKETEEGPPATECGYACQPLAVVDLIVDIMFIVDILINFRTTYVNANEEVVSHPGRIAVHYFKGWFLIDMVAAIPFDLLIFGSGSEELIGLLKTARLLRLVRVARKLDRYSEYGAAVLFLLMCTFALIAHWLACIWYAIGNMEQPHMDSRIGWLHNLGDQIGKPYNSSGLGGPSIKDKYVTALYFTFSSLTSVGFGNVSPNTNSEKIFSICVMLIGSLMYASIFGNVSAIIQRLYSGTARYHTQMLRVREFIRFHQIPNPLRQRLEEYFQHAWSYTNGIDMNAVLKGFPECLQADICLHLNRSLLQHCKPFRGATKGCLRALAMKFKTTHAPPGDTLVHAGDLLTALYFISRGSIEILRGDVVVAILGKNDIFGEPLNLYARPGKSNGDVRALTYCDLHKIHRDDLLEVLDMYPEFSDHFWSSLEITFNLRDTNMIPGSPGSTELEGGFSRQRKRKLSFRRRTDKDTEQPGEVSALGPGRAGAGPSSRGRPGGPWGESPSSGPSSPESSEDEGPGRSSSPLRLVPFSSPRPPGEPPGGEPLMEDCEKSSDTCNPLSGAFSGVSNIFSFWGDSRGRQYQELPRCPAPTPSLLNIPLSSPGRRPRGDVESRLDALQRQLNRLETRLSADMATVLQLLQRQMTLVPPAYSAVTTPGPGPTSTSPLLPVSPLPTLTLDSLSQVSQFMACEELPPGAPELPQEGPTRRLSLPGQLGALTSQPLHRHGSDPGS

SMILES	hERG current change (%, negative = inhibition) at 1uM [%]
COc1ccc(C(=O)Nc2ccc(Cl)c(S(=O)(=O)Nc3ccccc3OC)c2)cc1	-3.45
Cl.c1ccc(CN2CCN(c3nc(NCc4ccco4)c4ccccc4n3)CC2)cc1	-54.5
COCCCNC(=O)C1CCC(CNS(=O)(=O)c2ccc(Cl)cc2)CC1 (centres unmarked)	-0.312
COc1ccc(CCCc2nnc(SCC(=O)Nc3cc(C)c(C)cc3Br)o2)cc1	2.85
O=C(NCC1CCCO1)c1ccc(OC2CCN(C(=O)C3CC3)CC2)cc1 (centres unmarked)	11.4
CCOCc1nc(C)c(Cl)c(NS(=O)(=O)c2ccc(N)cc2)n1	14.7
CS(=O)(=O)N1CCc2cc(NC(=O)c3ccc(Cl)cc3Cl)ccc21	15.5
Cl.OC1(CN2CCOCC2)C2CC3CC(C2)CC1C3 (centres unmarked)	8.05
O=C(Nc1ccccn1)C1CCN(S(=O)(=O)c2ccc(Cl)cc2)CC1	11.1
COc1ccc2c(c1)O/C(=C\c1ccccc1O)C2=O	21.2
Oc1ccc(N=Cc2c(O)ccc3ccccc23)cc1	13.2
COc1ccc(C(=O)OCn2nnc3ccccc3c2=O)cc1[N+](=O)[O-]	1.82
CCCCOc1ccc(NC2=NC3(CCCC3)N=C(N)N2)cc1	15.9
CN(CC(=O)Nc1cccc(F)c1)C(=O)c1ccccc1OCCOc1ccccc1	8.56
CSc1ccc(CCNC(=O)CN2C(=O)c3cccnc3Oc3ccc(C)cc32)cc1	-5.21
O=C(NC(=S)Nc1cccc([N+](=O)[O-])c1)c1ccccc1	12.4
COc1cc(OC)c(C2=NOC(C(=O)Nc3c(C)n(C)n(-c4ccccc4)c3=O)C2)cc1Cl (centres unmarked)	13.1
CSc1ccc(S(=O)(=O)Nc2ccc(N3CCOCC3)c(Cl)c2)cc1	11.3
CCCCNC(=S)NC(=O)c1ccc(Cl)cc1Cl	13.1

SMILES	hERG current change (%, negative = inhibition) at 1uM [%]
N#Cc1nc(-c2cccs2)oc1NCC1CCCO1 (centres unmarked)	7.22
Nc1nonc1-c1noc(CCCOc2ccc(Cl)cc2Cl)n1	-4.56
O/N=C1\CCCc2ccc(Cl)cc21	-3.21
COc1cccc(N2CCN(S(=O)(=O)c3ccc4c(c3)N(C(C)=O)CCO4)CC2)c1	-3.26
O=C(NCCc1ccc(Cl)cc1)c1ccc(NC2=NC3CS(=O)(=O)CC3S2)cc1 (centres unmarked)	21.6
COc1cc(S(=O)(=O)Nc2ncccc2C)c(OC)cc1Cl	7.45
CC1=C(C(=O)OCc2ccccc2)C(c2cccnc2)c2c(n(C)c(=O)n(C)c2=O)N1 (centres unmarked)	-8.56
O=C1NC(c2ccccc2)=N/C1=C/c1ccco1	0.383
O=C(Nc1ncccn1)c1ccc(Cl)c([N+](=O)[O-])c1	13.7
O=C(COC(=O)Cc1ccc(Br)cc1)NC1CCCCCC1	11.4
COc1cc(C=C2C(=O)OC(C)(C)OC2=O)ccc1OCC(=O)Nc1ccccc1	14.3
CCN(CC)CCN1C(=O)C(=O)/C(=C(/O)c2ccc(OC)c(OC)c2)C1c1ccccn1 (centres unmarked)	10.3
O=C(Nc1ccc(-c2n[nH]c(=S)o2)cc1)c1ccccc1Cl	13.8
COc1ccccc1C(CNc1ncnc2sc(C)c(C)c12)N(C)C (centres unmarked)	-2.91
COc1ccc(CCN2C(=O)c3cccnc3C2=O)cc1OC	12.2
COc1ccc(NC(=O)c2ccc3c(c2)S(=O)(=O)c2ccccc2C3=O)cc1	9.56
CN1OC[C@@H]2COc3ccc4ccccc4c3[C@@H]21	16.9
CCOc1ccc(CNS(=O)(=O)c2c(C)nc3scc(C)n3c2=O)cc1OC	14.6
COCCNC(=O)Cn1cc(/C=C(\C#N)C(=O)NC2CCCC2)c2ccccc21	13.7

SMILES	hERG current change (%, negative = inhibition) at 1uM [%]
CN(CC(=O)Nc1cccc(F)c1)C(=O)c1cn(-c2ccccc2)nc1-c1ccc(F)cc1	2.27
Oc1cccc(C=NCc2ccccc2)c1O	4.4
Cc1nn(-c2ccccc2)c2[nH]c(=O)c(CNCCN3CCOCC3)cc12	-1.61
Cc1ccc(C(=O)Nc2ccc(C(=O)N3CCCCC3C)cc2)cc1 (centres unmarked)	-2
N#CC(=C=[N-])c1nc2ccccc2nc1-[n+]1ccccc1	-4.73
Clc1cccc(Cl)c1COc1ccccn1	14.5
COc1cc(NC(=O)CSc2nnc3c(C)cc4c(C)ccc(C)c4n23)c(C(=O)O)cc1OC	17.3
CC(C)(C)c1cc(O)c(C(C)(C)C)cc1O	6.92
Cc1ccc(C2(C)NC(=O)N(CC(=O)NCc3cccs3)C2=O)cc1 (centres unmarked)	12.5
Cc1cc(NC(=O)/C=C/c2ccc(Br)cc2)no1	18.2
CCc1ccccc1N1CC(C(=O)O)CC1=O (centres unmarked)	-24.2
CCOc1ccc(CN(Cc2ccco2)C(c2cccs2)c2nnnn2C(C)(C)C)cc1 (centres unmarked)	3.91
COCCCN1C(=O)C(=O)/C(=C(/O)c2ccc(S(=O)(=O)N3CCCCC3)cc2)C1c1ccc(O)cc1 (centres unmarked)	23.6
COC(=O)c1sc(NC(=O)Cc2cccs2)nc1C	12
COc1ccc(C)cc1S(=O)(=O)Nc1cccc(Cl)c1Cl	18.4
O=C(CCCCCN1C(=O)c2ccccc2C1=O)Nc1ccccc1F	12.5
COCCn1c(C)cc(C(=O)Cn2nc(C(=O)O)c3ccccc3c2=O)c1C	13.2
Cn1c(=O)n(C)c2cc(/C=N/NC(=S)NCc3ccccc3)ccc21	0.876
